Here are results for five molecules from publication PMC10711660, “An extended Tudor domain within Vreteno interconnects Gtsf1L and Ago3 for piRNA biogenesis in Bombyx mori” (The EMBO Journal, 2023).

Where a chain is given by its changes, count along the chain named. These are yes or no findings as the source states them, for the method shown. Binding seen in cells or lysates may run through a third protein. Some entries that bind do so weakly or less than the wild type. For some assays here: Sequences can lack the tags named with a protein.

For assay [1], the target named is T1, endogenous BmAgo3 (Bombyx mori (endogenous in BmN4)) (UniProt A9ZSZ2).
T1 sequence: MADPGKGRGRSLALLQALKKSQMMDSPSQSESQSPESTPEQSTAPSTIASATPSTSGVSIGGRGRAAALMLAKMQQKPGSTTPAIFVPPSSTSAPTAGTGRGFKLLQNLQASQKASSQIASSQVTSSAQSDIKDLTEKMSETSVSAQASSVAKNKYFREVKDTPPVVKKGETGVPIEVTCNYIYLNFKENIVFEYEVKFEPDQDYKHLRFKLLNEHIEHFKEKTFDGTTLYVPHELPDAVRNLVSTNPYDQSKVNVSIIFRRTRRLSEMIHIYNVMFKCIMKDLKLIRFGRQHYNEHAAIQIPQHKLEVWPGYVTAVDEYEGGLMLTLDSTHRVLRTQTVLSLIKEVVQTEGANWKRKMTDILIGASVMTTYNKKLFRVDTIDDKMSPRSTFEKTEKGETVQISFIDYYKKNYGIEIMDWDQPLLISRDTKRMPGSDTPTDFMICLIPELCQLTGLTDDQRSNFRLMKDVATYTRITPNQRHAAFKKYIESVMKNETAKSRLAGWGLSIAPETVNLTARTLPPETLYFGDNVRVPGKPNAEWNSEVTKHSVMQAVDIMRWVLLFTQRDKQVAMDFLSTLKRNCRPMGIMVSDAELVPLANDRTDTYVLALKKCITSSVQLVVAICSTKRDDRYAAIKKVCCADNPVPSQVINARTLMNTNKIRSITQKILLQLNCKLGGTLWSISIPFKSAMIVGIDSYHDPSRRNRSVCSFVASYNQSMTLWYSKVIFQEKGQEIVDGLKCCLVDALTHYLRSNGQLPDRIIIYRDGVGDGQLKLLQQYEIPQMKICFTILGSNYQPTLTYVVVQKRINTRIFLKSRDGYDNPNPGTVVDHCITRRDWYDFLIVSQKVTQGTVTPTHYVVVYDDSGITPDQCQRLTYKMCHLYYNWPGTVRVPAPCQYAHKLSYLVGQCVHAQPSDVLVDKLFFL
As to the kind of experiment: co-IP; antibodies to endogenous BmAgo3, Siwi or BmVreteno on Protein G Dynabeads, lysate of naive BmN4 cells; non-immune serum or rabbit IgG as control; IP-150 buffer, overnight 4°C; Western blot. A general note: In western blotting, separated proteins are transferred to a membrane and probed.

For assay [2], the target named is T1, endogenous BmAgo3 (Bombyx mori (endogenous in BmN4)). As to the kind of experiment: co-IP; antibodies to endogenous BmAgo3, Siwi or BmVreteno on Protein G Dynabeads, lysate of BmN4 cells stably expressing HA-BmGtsf1L-eGFP; also after dsRNA knock-down of luciferase, BmGtsf1L or BmVreteno; IP-150 buffer, overnight 4°C; Western blot.
Assay [3] concerns the target T2, endogenous Siwi (Bombyx mori (endogenous in BmN4)) (UniProt A8D8P8).
T2 sequence: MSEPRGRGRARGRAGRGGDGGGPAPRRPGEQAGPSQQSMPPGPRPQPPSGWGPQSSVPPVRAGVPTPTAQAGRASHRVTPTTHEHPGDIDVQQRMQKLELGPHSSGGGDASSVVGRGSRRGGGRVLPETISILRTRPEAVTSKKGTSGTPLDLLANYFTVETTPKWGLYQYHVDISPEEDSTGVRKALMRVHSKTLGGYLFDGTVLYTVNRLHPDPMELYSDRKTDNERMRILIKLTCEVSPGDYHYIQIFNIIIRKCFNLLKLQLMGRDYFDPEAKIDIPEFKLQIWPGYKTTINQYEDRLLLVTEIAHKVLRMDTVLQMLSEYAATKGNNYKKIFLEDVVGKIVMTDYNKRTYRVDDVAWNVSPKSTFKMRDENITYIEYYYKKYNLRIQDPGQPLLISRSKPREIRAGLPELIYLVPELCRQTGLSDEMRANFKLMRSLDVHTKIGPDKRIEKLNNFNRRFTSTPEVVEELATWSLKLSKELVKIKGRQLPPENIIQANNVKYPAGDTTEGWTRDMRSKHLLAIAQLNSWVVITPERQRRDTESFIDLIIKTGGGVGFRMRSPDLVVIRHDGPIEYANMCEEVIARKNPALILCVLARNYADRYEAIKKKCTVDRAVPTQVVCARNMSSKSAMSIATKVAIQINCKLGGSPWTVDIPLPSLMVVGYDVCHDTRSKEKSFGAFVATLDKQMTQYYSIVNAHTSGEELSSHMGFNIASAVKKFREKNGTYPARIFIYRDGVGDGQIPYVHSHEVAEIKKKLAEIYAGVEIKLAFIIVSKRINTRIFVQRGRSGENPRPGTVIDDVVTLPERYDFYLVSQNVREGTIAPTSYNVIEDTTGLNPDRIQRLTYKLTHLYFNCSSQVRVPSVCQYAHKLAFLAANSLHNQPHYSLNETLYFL
Described as above.

Assay [4] addresses T3, HA‐BmGtsf1L‐eGFP (Bombyx mori).
T3 sequence: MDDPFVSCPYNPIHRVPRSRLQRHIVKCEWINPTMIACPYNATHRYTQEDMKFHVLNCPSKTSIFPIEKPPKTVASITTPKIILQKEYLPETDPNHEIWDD
The assay can be described thus: co-IP; GFP-Trap magnetic agarose or control beads, lysate of BmN4 cells stably expressing HA-BmGtsf1L-eGFP; also after dsRNA knock-down of luciferase, BmAgo3 or BmVreteno; IP-150 buffer, overnight 4°C; Western blot.

Assay [5] addresses T4, BmGtsf1L‐eGFP W99A (Bombyx mori).
T4 sequence: T3 sequence with W99A
As to the kind of experiment: co-IP; GFP-IP on extracts of BmN4 cells transfected with BmGtsf1L-eGFP full length, deletion variants or alanine mutants; HA-eGFP as control; Western blot of endogenous BmVreteno and BmAgo3.

For assay [6], the target named is T5, BmGtsf1L‐eGFP Y88A (Bombyx mori).
T5 sequence: T3 sequence with Y88A
The assay is described as above.

Assay [7] deals with T6, BmGtsf1L‐eGFP double point mutant (YW > AA) (Bombyx mori).
T6 sequence: T3 sequence with Y88A, W99A
The assay is described as above.

The target in assay [8] is T7, full length (FL) BmGtsf1L‐eGFP (Bombyx mori).
T7 sequence: T3 sequence
Described as above.

Assay [9] concerns the target T8, HA‐tagged BmGtsf1L (Bombyx mori).
T8 sequence: T3 sequence
As to the kind of experiment: co-IP; anti-HA magnetic beads, lysate of BmN4 cells transiently transfected with HA-BmGtsf1L (with FLAG-tagged partners or alone); IP-150 buffer (150 mM KOAc, 0.1% Igepal), overnight 4°C; with or without RNase A/T1; Western blot.

Assay [10] has as its target T7, full length (FL) BmGtsf1L‐eGFP (Bombyx mori). The assay can be described thus: co-IP; GFP or control immunoprecipitation on extracts of FLAG-PIWI stable BmN4 cells co-transfected with BmGtsf1L-eGFP; Western blot.

B1: endogenous BmGtsf1L (protein)
chain: T3 sequence
As for B1, the binding result in assay [1] was “binds”.

B2: HA‐BmGtsf1L‐eGFP (protein)
chain: T3 sequence
As for B2, the binding entry in [2] is “binds”; in assay [3] it was “binds weakly”.

B3: endogenous BmVreteno‐Long (L) isoform (protein)
chain: MSNHSRPQRRREWDPMRDDFNEHTYDVQYADDNAGEQVQLDHTKLYIINIPRGLSEDGIRAAFSKHGKVLSARLSKNPNKRFAIVQFETASEAKLAMMKMNGSEPLNLKISIAHKTIRKTQHDNKDRNYSTSRNGHCSRDEASSISSKGWNMRNLDDVMNNDEIDEIDDMIHEDHDDNLDLELDMLTLKQLKIKEEQLMCKRRLLLRHAEKRQVAPHSSAGRSVLPDGRIVVRNNANETDSAEVEPSFAGAGSESLKTPGLERNASRQCVKCGAPADWYCSRCAITPYCSQTCQTRDWTERHKSVCHYLAPLKTAGGFEAEATSSKSVSNSTPMRSSHSPPTKQQRGEADETDNKAKNIQEPRQNYHRPSNSGPNKNIPGKNQDPRRPATSREAIEEETEERGARNPKPAEATKDKHHPMNPVTFQRRQLKSNPVVDAQPAPREQQQPAATRAPEASPTEQRESTRRTLVPDRCLIDSLSEGDVVLVSVELKASECCTKQGGYVCLSMHEKYESDYQKLCEDYVLDCEADSDEYKIITGDTFSYLSPEDGGWYRARALNTTMAALLDGSKVVYLRMNDKVKKLPAKYSGIPEFCCVLNADVEVGLNLKCSLLSKTPNGFKVTLENVETEANVGEGEITRWIPEVDYPPPVKNVPVQRSVEIPEVPRPEIKNKSRVILVDATDVQRVFVRPADTRSQKAFDNILQDVLLYGTTAEPLKEPPSKGQTVVSKYTDNLHYRALCKRTSVNKNKYLLEYIEYGNIEITQLNRLYPCPEHLSVTSLASLTSHVQLDTTVGELTPRALEYIETIKEEEMILTLSSGGDTAQSGAALVNLTLVKNNDNVNKRIEELCTPEWKKLELKGVDVIETERLMYGTALDYIELPAAPFDLQVLDEVGLDSGNISGCPTNSDYVRYVMTKLPARMREYCESEFGRQPYLPAAEELCIAQLPPSSEWHRAVVLEQILGPGGGTARVLFVDHGNVAEVPVSSLRKMLAEFVTDLPAVACQIVIEDFPKQATAEMLAKARRFMSGPDKARAAQLPVRGCDKQDVGIYAIRVPELLEAMTE
As for B3, the binding entry in [1], in assay [4] and in [2] was “binds” each time.

B4: endogenous BmAgo3 (protein, UniProt A9ZSZ2 1-926)
chain: T1 sequence
On to B4, for which the binding entry in [5], in assay [6], in [7], in assay [8], in assay [9] and in assay [4] was “binds” in each case.

B5: 3xFLAG‐BmAgo3 (protein, UniProt A9ZSZ2 1-926)
chain: T1 sequence
Regarding B5, the binding entry in [10] and in assay [9] was “binds” throughout.
